These results are taken from patent publication US20240076343A1 (CEPHALON, published 2024).

Some results are limits rather than exact numbers.

Assay [1] has as its target T1, high-affinity hIL-2 receptor (IL-2Rαβγ) (human, UniProt P01589 22-272; P14784 27-551; P31785 23-369).
T1 sequence 1: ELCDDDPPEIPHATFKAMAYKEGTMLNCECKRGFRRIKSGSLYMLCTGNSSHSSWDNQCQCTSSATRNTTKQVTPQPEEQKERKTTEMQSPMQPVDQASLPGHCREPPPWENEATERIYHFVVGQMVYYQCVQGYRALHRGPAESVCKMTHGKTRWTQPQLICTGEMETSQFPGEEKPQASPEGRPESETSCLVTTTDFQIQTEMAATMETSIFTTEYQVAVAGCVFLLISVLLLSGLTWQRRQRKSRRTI
T1 sequence 2: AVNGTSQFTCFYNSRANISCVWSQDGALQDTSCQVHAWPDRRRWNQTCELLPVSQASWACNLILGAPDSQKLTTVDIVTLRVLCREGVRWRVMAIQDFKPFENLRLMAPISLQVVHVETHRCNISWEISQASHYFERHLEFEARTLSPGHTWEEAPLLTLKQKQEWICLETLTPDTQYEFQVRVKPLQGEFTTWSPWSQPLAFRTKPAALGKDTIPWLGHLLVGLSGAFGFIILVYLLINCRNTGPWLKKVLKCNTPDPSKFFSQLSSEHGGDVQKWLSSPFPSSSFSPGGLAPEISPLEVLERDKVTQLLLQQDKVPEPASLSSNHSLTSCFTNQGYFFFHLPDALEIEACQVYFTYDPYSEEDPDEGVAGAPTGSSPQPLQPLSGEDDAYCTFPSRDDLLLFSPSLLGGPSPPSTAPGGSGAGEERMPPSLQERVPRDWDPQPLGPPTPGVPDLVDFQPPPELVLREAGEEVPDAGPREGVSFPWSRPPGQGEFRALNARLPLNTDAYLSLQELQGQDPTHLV
T1 sequence 3: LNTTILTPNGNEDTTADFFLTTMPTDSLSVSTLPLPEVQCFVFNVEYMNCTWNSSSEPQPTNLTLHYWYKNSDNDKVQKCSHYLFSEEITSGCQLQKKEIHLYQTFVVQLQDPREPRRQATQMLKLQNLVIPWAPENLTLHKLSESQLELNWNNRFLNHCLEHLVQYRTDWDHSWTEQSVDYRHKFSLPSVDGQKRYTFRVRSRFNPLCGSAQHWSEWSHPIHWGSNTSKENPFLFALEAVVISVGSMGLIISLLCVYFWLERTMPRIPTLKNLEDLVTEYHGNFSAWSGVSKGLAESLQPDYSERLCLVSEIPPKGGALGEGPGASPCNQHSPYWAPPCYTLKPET
In words: cell-based or functional assay.

Assay [2] addresses T2, intermediate affinity hIL-2 receptor complex (IL-2Rβγ) (human, UniProt P14784 27-551; P31785 23-369).
T2 sequence 1: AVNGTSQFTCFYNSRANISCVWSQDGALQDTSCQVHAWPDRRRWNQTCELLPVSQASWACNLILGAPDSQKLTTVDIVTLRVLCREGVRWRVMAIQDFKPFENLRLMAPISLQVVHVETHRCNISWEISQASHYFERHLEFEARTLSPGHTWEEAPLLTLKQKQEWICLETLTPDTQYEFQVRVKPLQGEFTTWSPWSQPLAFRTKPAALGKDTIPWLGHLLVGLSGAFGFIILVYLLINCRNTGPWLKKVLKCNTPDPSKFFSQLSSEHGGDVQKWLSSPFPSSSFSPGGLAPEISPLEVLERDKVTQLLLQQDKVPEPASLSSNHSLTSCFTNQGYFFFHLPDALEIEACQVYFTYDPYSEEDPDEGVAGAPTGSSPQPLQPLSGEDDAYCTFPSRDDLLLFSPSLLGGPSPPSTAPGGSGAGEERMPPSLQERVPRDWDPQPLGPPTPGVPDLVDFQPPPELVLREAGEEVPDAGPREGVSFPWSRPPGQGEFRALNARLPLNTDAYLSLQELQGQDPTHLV
T2 sequence 2: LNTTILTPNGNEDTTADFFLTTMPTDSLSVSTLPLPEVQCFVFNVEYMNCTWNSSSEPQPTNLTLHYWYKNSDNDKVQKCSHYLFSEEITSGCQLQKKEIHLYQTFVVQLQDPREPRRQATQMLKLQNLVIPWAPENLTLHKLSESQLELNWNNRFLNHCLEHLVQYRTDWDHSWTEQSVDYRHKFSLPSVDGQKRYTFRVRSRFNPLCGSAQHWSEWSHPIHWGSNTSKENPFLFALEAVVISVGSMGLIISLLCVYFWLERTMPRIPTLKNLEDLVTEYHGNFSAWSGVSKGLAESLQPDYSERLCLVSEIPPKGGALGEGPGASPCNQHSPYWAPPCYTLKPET
Put plainly: cell-based or functional assay.

B1: 1H3-hIgG1-L6-hCD25(1-164)-L20-hIL-2 (N88Y) (other)
heavy: EVQLVESGGGLVQPGRSLKLSCAVSGFTFSDYAMAWVRQAPKKGLEWVATISYDGSRTYYRDSVKGRFTISRDNAKITLYLQMDSLRSEDTATYYCARHGSGYFDYWGQGVMVTVSS[not shown - human IgG1 constant region]SGGGGSELCDDDPPEIPHATFKAMAYKEGTMLNCECKRGFRRIKSGSLYMLCTGNSSHSSWDNQCQCTSSATRNTTKQVTPQPEEQKERKTTEMQSPMQPVDQASLPGHCREPPPWENEATERIYHFVVGQMVYYQCVQGYRALHRGPAESVCKMTHGKTRWTQPQLICTSGGGGSGGGGSGGGGSGGGS[not shown - about 150 residues]
light: DTVLTQSPALAVSPGERVTISCRASESVRTGVHWYQQKPGQQPKLLIYGASNLESGVPARFSGSGSGTDFTLTIDPVEADDTATYFCQQSWNDPFTFGSGTKLEIKRTVAAPSVFIFPPSDEQLKSGTASVVCLLNNFYPREAKVQWKVDNALQSGNSQESVTEQDSKDSTYSLSSTLTLSKADYEKHKVYACEVTHQGLSSPVTKSFNRGEC
Turning to B1, in assay [1], the “Fold change from rhIL-2 (NK-92), pSTAT5 titration” value was greater than 10000 fold. Besides, the “Fold change from rhIL-2 (TF1 + IL-2Rβ), pSTAT5 titration” value (shortened to “Fold change from rhIL-2 (TF1 + IL-2Rβ)”) in assay [2] was greater than 10000 fold.

B2: 1H3-hIgG1-L6-hCD25(1-164)-L20-hIL-2 (N88E) (other)
heavy: EVQLVESGGGLVQPGRSLKLSCAVSGFTFSDYAMAWVRQAPKKGLEWVATISYDGSRTYYRDSVKGRFTISRDNAKITLYLQMDSLRSEDTATYYCARHGSGYFDYWGQGVMVTVSS[not shown - human IgG1 constant region]SGGGGSELCDDDPPEIPHATFKAMAYKEGTMLNCECKRGFRRIKSGSLYMLCTGNSSHSSWDNQCQCTSSATRNTTKQVTPQPEEQKERKTTEMQSPMQPVDQASLPGHCREPPPWENEATERIYHFVVGQMVYYQCVQGYRALHRGPAESVCKMTHGKTRWTQPQLICTSGGGGSGGGGSGGGGSGGGS[not shown - about 150 residues]
light: DTVLTQSPALAVSPGERVTISCRASESVRTGVHWYQQKPGQQPKLLIYGASNLESGVPARFSGSGSGTDFTLTIDPVEADDTATYFCQQSWNDPFTFGSGTKLEIKRTVAAPSVFIFPPSDEQLKSGTASVVCLLNNFYPREAKVQWKVDNALQSGNSQESVTEQDSKDSTYSLSSTLTLSKADYEKHKVYACEVTHQGLSSPVTKSFNRGEC
For the molecule B2, in assay [1], the “Fold change from rhIL-2 (NK-92), pSTAT5 titration” value was greater than 10000 fold. Also, in assay [2], the “Fold change from rhIL-2 (TF1 + IL-2Rβ)” value was greater than 10000 fold.

B3: 1H3-hIgG1-L6-hCD25(1-164)-L20-hIL-2 (N88R) (other)
heavy: EVQLVESGGGLVQPGRSLKLSCAVSGFTFSDYAMAWVRQAPKKGLEWVATISYDGSRTYYRDSVKGRFTISRDNAKITLYLQMDSLRSEDTATYYCARHGSGYFDYWGQGVMVTVSS[not shown - human IgG1 constant region]SGGGGSELCDDDPPEIPHATFKAMAYKEGTMLNCECKRGFRRIKSGSLYMLCTGNSSHSSWDNQCQCTSSATRNTTKQVTPQPEEQKERKTTEMQSPMQPVDQASLPGHCREPPPWENEATERIYHFVVGQMVYYQCVQGYRALHRGPAESVCKMTHGKTRWTQPQLICTSGGGGSGGGGSGGGGSGGGS[not shown - about 150 residues]
light: DTVLTQSPALAVSPGERVTISCRASESVRTGVHWYQQKPGQQPKLLIYGASNLESGVPARFSGSGSGTDFTLTIDPVEADDTATYFCQQSWNDPFTFGSGTKLEIKRTVAAPSVFIFPPSDEQLKSGTASVVCLLNNFYPREAKVQWKVDNALQSGNSQESVTEQDSKDSTYSLSSTLTLSKADYEKHKVYACEVTHQGLSSPVTKSFNRGEC
On to B3, for which the “Fold change from rhIL-2 (NK-92), pSTAT5 titration” value in assay [1] was 274 fold. Also, in assay [2], the “Fold change from rhIL-2 (TF1 + IL-2Rβ)” value was greater than 10000 fold.

B4: 1H3-hIgG1-L6-hCD25(1-164)-L20-hIL-2 (I92A) (other)
heavy: EVQLVESGGGLVQPGRSLKLSCAVSGFTFSDYAMAWVRQAPKKGLEWVATISYDGSRTYYRDSVKGRFTISRDNAKITLYLQMDSLRSEDTATYYCARHGSGYFDYWGQGVMVTVSS[not shown - human IgG1 constant region]SGGGGSELCDDDPPEIPHATFKAMAYKEGTMLNCECKRGFRRIKSGSLYMLCTGNSSHSSWDNQCQCTSSATRNTTKQVTPQPEEQKERKTTEMQSPMQPVDQASLPGHCREPPPWENEATERIYHFVVGQMVYYQCVQGYRALHRGPAESVCKMTHGKTRWTQPQLICTSGGGGSGGGGSGGGGSGGGS[not shown - about 150 residues]
light: DTVLTQSPALAVSPGERVTISCRASESVRTGVHWYQQKPGQQPKLLIYGASNLESGVPARFSGSGSGTDFTLTIDPVEADDTATYFCQQSWNDPFTFGSGTKLEIKRTVAAPSVFIFPPSDEQLKSGTASVVCLLNNFYPREAKVQWKVDNALQSGNSQESVTEQDSKDSTYSLSSTLTLSKADYEKHKVYACEVTHQGLSSPVTKSFNRGEC
Take B4: in assay [1], the “Fold change from rhIL-2 (NK-92), pSTAT5 titration” value was determined as 26 fold. In assay [2], the “Fold change from rhIL-2 (TF1 + IL-2Rβ)” value was 95 fold.

B5: 1H3-hIgG1-L6-hCD25(1-164)-L20-hIL-2 (N88I) (other)
heavy: EVQLVESGGGLVQPGRSLKLSCAVSGFTFSDYAMAWVRQAPKKGLEWVATISYDGSRTYYRDSVKGRFTISRDNAKITLYLQMDSLRSEDTATYYCARHGSGYFDYWGQGVMVTVSS[not shown - human IgG1 constant region]SGGGGSELCDDDPPEIPHATFKAMAYKEGTMLNCECKRGFRRIKSGSLYMLCTGNSSHSSWDNQCQCTSSATRNTTKQVTPQPEEQKERKTTEMQSPMQPVDQASLPGHCREPPPWENEATERIYHFVVGQMVYYQCVQGYRALHRGPAESVCKMTHGKTRWTQPQLICTSGGGGSGGGGSGGGGSGGGS[not shown - about 150 residues]
light: DTVLTQSPALAVSPGERVTISCRASESVRTGVHWYQQKPGQQPKLLIYGASNLESGVPARFSGSGSGTDFTLTIDPVEADDTATYFCQQSWNDPFTFGSGTKLEIKRTVAAPSVFIFPPSDEQLKSGTASVVCLLNNFYPREAKVQWKVDNALQSGNSQESVTEQDSKDSTYSLSSTLTLSKADYEKHKVYACEVTHQGLSSPVTKSFNRGEC
For B5, the “Fold change from rhIL-2 (NK-92), pSTAT5 titration” value in assay [1] amounted to 7780 fold. For the same molecule, the “Fold change from rhIL-2 (TF1 + IL-2Rβ)” value in assay [2] was greater than 10000 fold.

B6: 1H3-hIgG1-L6-hCD25(1-164)-L20-hIL-2 (N88F) (other)
heavy: EVQLVESGGGLVQPGRSLKLSCAVSGFTFSDYAMAWVRQAPKKGLEWVATISYDGSRTYYRDSVKGRFTISRDNAKITLYLQMDSLRSEDTATYYCARHGSGYFDYWGQGVMVTVSS[not shown - human IgG1 constant region]SGGGGSELCDDDPPEIPHATFKAMAYKEGTMLNCECKRGFRRIKSGSLYMLCTGNSSHSSWDNQCQCTSSATRNTTKQVTPQPEEQKERKTTEMQSPMQPVDQASLPGHCREPPPWENEATERIYHFVVGQMVYYQCVQGYRALHRGPAESVCKMTHGKTRWTQPQLICTSGGGGSGGGGSGGGGSGGGS[not shown - about 150 residues]
light: DTVLTQSPALAVSPGERVTISCRASESVRTGVHWYQQKPGQQPKLLIYGASNLESGVPARFSGSGSGTDFTLTIDPVEADDTATYFCQQSWNDPFTFGSGTKLEIKRTVAAPSVFIFPPSDEQLKSGTASVVCLLNNFYPREAKVQWKVDNALQSGNSQESVTEQDSKDSTYSLSSTLTLSKADYEKHKVYACEVTHQGLSSPVTKSFNRGEC
As to B6, the “Fold change from rhIL-2 (NK-92), pSTAT5 titration” value in assay [1] was greater than 10000 fold. Further, the “Fold change from rhIL-2 (TF1 + IL-2Rβ)” value in assay [2] was greater than 10000 fold.

B7: 1H3-hIgG1-L6-hCD25(1-164)-L20-hIL-2 (N88D) (other)
heavy: EVQLVESGGGLVQPGRSLKLSCAVSGFTFSDYAMAWVRQAPKKGLEWVATISYDGSRTYYRDSVKGRFTISRDNAKITLYLQMDSLRSEDTATYYCARHGSGYFDYWGQGVMVTVSS[not shown - human IgG1 constant region]SGGGGSELCDDDPPEIPHATFKAMAYKEGTMLNCECKRGFRRIKSGSLYMLCTGNSSHSSWDNQCQCTSSATRNTTKQVTPQPEEQKERKTTEMQSPMQPVDQASLPGHCREPPPWENEATERIYHFVVGQMVYYQCVQGYRALHRGPAESVCKMTHGKTRWTQPQLICTSGGGGSGGGGSGGGGSGGGS[not shown - about 150 residues]
light: DTVLTQSPALAVSPGERVTISCRASESVRTGVHWYQQKPGQQPKLLIYGASNLESGVPARFSGSGSGTDFTLTIDPVEADDTATYFCQQSWNDPFTFGSGTKLEIKRTVAAPSVFIFPPSDEQLKSGTASVVCLLNNFYPREAKVQWKVDNALQSGNSQESVTEQDSKDSTYSLSSTLTLSKADYEKHKVYACEVTHQGLSSPVTKSFNRGEC
Turning to B7, the “Fold change from rhIL-2 (NK-92), pSTAT5 titration” value in assay [1] stood at 393 fold. Besides, in assay [2], the “Fold change from rhIL-2 (TF1 + IL-2Rβ)” value was greater than 10000 fold.
